# Where “and” joins values, the source holds several entries; their conditions need not be identical. Equal entries are not always repeated. The shares of active, inactive and inconclusive entries below differ from those in the screen. Potencies beside an inconclusive call are fits to weak or partial responses and may not hold up. Calls of active or inactive are those of the source. Calls follow the shape of the dose curve; as a rule, active = well fitted curve in the direction sought with a large enough effect; inconclusive = small, poorly fitted or top-dose-only effect, or another doubt; inactive = no such curve, though single readings can be large; an effect the other way counts as inactive or inconclusive.
# Tests used:
# HEK293 = assay: Cytotoxic Profiling of Annotated Libraries Using Quantitative High-Throughput Screening (AID 1296008); conditions: Five cell lines viability, CellTiter-Glo ATP luminescence, 48-72 h; max response: stronger effect = lower value; also: nearly all actives have a fitted effect of over 60% in size
# How it was run: (§1)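 Compounds were pin-transferred onto cells and incubated 48 or 72 hr at 37 degree Celsius, 95% humidity. CellTiter-Glo was added, plates sat 10 min at room temperature, then ATP-coupled luminescence was imaged as the viability read-out.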
# HaCat = assay: as above; conditions: Five cell lines viability, CellTiter-Glo ATP luminescence, 48-72 h; max response: stronger effect = lower value
# How it was run: as §1
# KB-3-1 = assay: as above; conditions: Five cell lines viability, CellTiter-Glo ATP luminescence, 48-72 h; max response: stronger effect = lower value
# How it was run: as §1
# NIH3T3 = assay: as above; conditions: Five cell lines viability, CellTiter-Glo ATP luminescence, 48-72 h; max response: stronger effect = lower value
# How it was run: as §1
# MCC-13 = assay: qHTS assay to identify novel small-molecules to repurpose for Merkel cell carcinoma treatment (AID 1296009); conditions: MCC and control cell lines, CellTiter-Glo viability, 72 h; series mostly up to 46 µM; also: nearly all actives have a fitted effect of over 60% in size
# How it was run: (§2)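 Cells exposed to NPC (8-point) and MIPE (11-point) compound dilutions for 72 hr at 37 degree celsius; viability read by CellTiter-Glo luminescence, normalized to no-cell and DMSO in-plate controls.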
# CAOV3 = assay: Primary qHTS to identify gynecologic anti-cancer compounds using libraries of approved drugs and bioactive compounds (AID 1345084); conditions: Gynecologic cancer cell panel viability, ATPlite luminescence, 48 h; series mostly up to 57.5 µM; also: nearly all actives have a fitted effect of over 55% in size
# How it was run: (§3)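 ATP-based viability (ATPlite), 1,000 cells/well, 16 h pre-incubation, 48 h compound at 37 C, 5% CO2, 15 min RT before read.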
# JEG-3 = assay: as above; conditions: Gynecologic cancer cell panel viability, ATPlite luminescence, 48 h; series mostly up to 57.5 µM
# How it was run: as §3
# MKL-1 = assay: qHTS assay to identify novel small-molecules to repurpose for Merkel cell carcinoma treatment (AID 1296009); conditions: MCC and control cell lines, CellTiter-Glo viability, 72 h; series mostly up to 46 µM; also: nearly all actives have a fitted effect of over 60% in size
# How it was run: as §2
# MKL-2 = assay: as above; conditions: MCC and control cell lines, CellTiter-Glo viability, 72 h; activity change, negative = cytotoxicity: at 46 µM (top of the series)
# How it was run: as §2
# UISO = assay: as above; conditions: MCC and control cell lines, CellTiter-Glo viability, 72 h; series mostly up to 46 µM
# How it was run: as §2
# C33A = assay: Primary qHTS to identify gynecologic anti-cancer compounds using libraries of approved drugs and bioactive compounds (AID 1345084); conditions: Gynecologic cancer cell panel viability, ATPlite luminescence, 48 h; series mostly up to 57.5 µM; also: nearly all actives have a fitted effect of over 55% in size
# How it was run: as §3
# CASKI = assay: as above; conditions: Gynecologic cancer cell panel viability, ATPlite luminescence, 48 h; series mostly up to 57.5 µM
# How it was run: as §3
# Es-2 = assay: as above; conditions: Gynecologic cancer cell panel viability, ATPlite luminescence, 48 h; series mostly up to 57.5 µM
# How it was run: as §3
# HeLa = assay: as above; conditions: Gynecologic cancer cell panel viability, ATPlite luminescence, 48 h; series mostly up to 57.5 µM
# How it was run: as §3
# Hek293T = assay: as above; conditions: Gynecologic cancer cell panel viability, ATPlite luminescence, 48 h, control line for the selectivity index; series mostly up to 57.5 µM
# How it was run: as §3
# OV90 = assay: as above; conditions: Gynecologic cancer cell panel viability, ATPlite luminescence, 48 h; series mostly up to 57.5 µM
# How it was run: as §3
# PA-1 = assay: as above; conditions: Gynecologic cancer cell panel viability, ATPlite luminescence, 48 h; series mostly up to 57.5 µM
# How it was run: as §3
# WaGa = assay: qHTS assay to identify novel small-molecules to repurpose for Merkel cell carcinoma treatment (AID 1296009); conditions: MCC and control cell lines, CellTiter-Glo viability, 72 h; series mostly up to 46 µM; also: nearly all actives have a fitted effect of over 60% in size
# How it was run: as §2
# MCC-26 = assay: as above; conditions: MCC and control cell lines, CellTiter-Glo viability, 72 h; activity change, negative = cytotoxicity: at 46 µM (top of the series)
# How it was run: as §2
# SKOV3 = assay: Primary qHTS to identify gynecologic anti-cancer compounds using libraries of approved drugs and bioactive compounds (AID 1345084); conditions: Gynecologic cancer cell panel viability, ATPlite luminescence, 48 h; series mostly up to 57.5 µM; also: nearly all actives have a fitted effect of over 55% in size
# How it was run: as §3
# % is scaled to controls: 0 for no effect and ±100 for the full control effect; potency is read from the fitted curve at half-maximal effect; tags tell the direction and shape of the fitted curve.
smiles,measurement,setting,value
COc1cc(Oc2ccnc3cc(OC)c(OC)cc23)ccc1NC(=O)NC(C)c1nccs1 (centres undefined),Potency,HEK293,"inconclusive: 20.6 µM [inhibitor, single point]"
same,Potency,HaCat,"inconclusive: 37.2 µM [inhibitor, single point]"
same,Potency,KB-3-1,"inconclusive: 33.2 µM [inhibitor, single point] and inconclusive: 29.1 µM [inhibitor, single point]"
same,Potency,NIH3T3,"inconclusive: 29.6 µM [inhibitor, single point]"
same,Potency,MCC-13,inactive
same,Potency,CAOV3,inactive
same,Potency,JEG-3,inactive
CCN(CC)CCOc1ccc(/C(=C(\Cl)c2ccccc2)c2ccccc2)cc1,Potency,HEK293,"inconclusive: 23.7 µM [inhibitor, single point]"
same,Potency,HaCat,"inconclusive: 33.5 µM [inhibitor, single point] and inconclusive: 18.4 µM [inhibitor, single point]"
same,Potency,KB-3-1,"inconclusive: 7.31 µM [inhibitor, partial curve, poor fit] and inconclusive: 25.9 µM [inhibitor, single point]"
same,Potency,NIH3T3,"inconclusive: 29.9 µM [inhibitor, single point] and inconclusive: 29.1 µM [inhibitor, single point]"
same,Potency,MKL-1,active: 23.7 µM
same,Potency,MKL-2,"inconclusive: 10.6 µM [inhibitor, partial curve, poor fit]"
same,Potency,UISO,"inconclusive: 21.1 µM [inhibitor, single point]"
same,Potency,C33A,"inconclusive: 22.4 µM [cytotoxic, single point]"
same,Potency,CAOV3,"inconclusive: 39.8 µM [cytotoxic, single point] and inconclusive: 25.1 µM [cytotoxic, single point]"
same,Potency,CASKI,"inconclusive: 28.2 µM [cytotoxic, partial curve, poor fit]"
same,Potency,Es-2,"inconclusive: 28.2 µM [cytotoxic, single point] and inconclusive: 12.6 µM [cytotoxic, partial curve]"
same,Potency,HeLa,"inconclusive: 35.5 µM [cytotoxic, partial curve, poor fit]"
same,Potency,Hek293T,"inconclusive: 35.5 µM [cytotoxic, single point] and inconclusive: 39.8 µM [cytotoxic, single point]"
same,Potency,OV90,"active: 14.1 µM and inconclusive: 14.1 µM [cytotoxic, partial curve, poor fit]"
same,Potency,PA-1,"inconclusive: 25.1 µM [cytotoxic, single point] and inconclusive: 35.5 µM [cytotoxic, single point]"
CC(C(=O)O)c1ccc2c(c1)[nH]c1ccc(Cl)cc12 (centres undefined),max response,HEK293,inactive: -1.79%
same,outcome,HEK293,inactive
same,Potency,UISO,inactive
same,Potency,CAOV3,"inconclusive: 0.0891 µM [rising, full curve, poor fit]"
same,Potency,Hek293T,inactive
CNS(=O)(=O)CCc1ccc2[nH]cc(C3CCN(C)CC3)c2c1,max response,HEK293,inactive: -3.79% and inactive: -10.1%
same,outcome,HEK293,inactive
same,Potency,HaCat,"inconclusive: 14.6 µM [inhibitor, partial curve]"
same,Potency,MKL-2,inactive
same,Potency,WaGa,"inconclusive: 11.8 µM [inhibitor, full curve]"
same,Potency,CAOV3,"inconclusive: 25.1 µM [rising, single point]"
same,Potency,HeLa,inactive
same,Potency,PA-1,inactive
Cc1ccccc1C(C(=O)NC1CCCCC1)N(C(=O)Cn1ccnc1C)c1cccc(F)c1 (centres undefined),Potency,HEK293,"inconclusive: 29.1 µM [inhibitor, single point]"
same,max response,HEK293,inactive: -0.939%
same,Potency,CAOV3,inactive
CN(C)c1ccc2cc(C(=O)N[C@@H](CCCN=C(N)CCl)C(=O)NCc3ccccc3)ccc2c1,Potency,HEK293,"inconclusive: 14.8 µM [inhibitor, partial curve, poor fit]"
same,max response,HaCat,inactive: -9.24%
same,Potency,KB-3-1,"inconclusive: 33.2 µM [inhibitor, single point]"
COC(=O)Nc1nc2ccc(Sc3ccccc3)cc2[nH]1,Potency,HEK293,active: 473 nM and active: 1.32 µM
same,Potency,HaCat,"inconclusive: 0.75 µM [inhibitor, partial curve, poor fit]"
same,Potency,KB-3-1,"inconclusive: 0.699 µM [inhibitor, full curve]"
same,Potency,NIH3T3,"inconclusive: 1.05 µM [inhibitor, full curve]"
same,Potency,MCC-13,"inconclusive: 1.06 µM [inhibitor, full curve] and inconclusive: 2.96 µM [inhibitor, full curve]"
same,Potency,MCC-26,"inconclusive: 1.19 µM [inhibitor, full curve] and inconclusive: 5.9 µM [inhibitor, full curve]"
same,Potency,MKL-1,"inconclusive: 944 nM [inhibitor, full curve] and inconclusive: 2.35 µM [inhibitor, full curve]"
same,Potency,MKL-2,"inconclusive: 4.22 µM [inhibitor, full curve]"
same,Potency,UISO,"inconclusive: 596 nM [inhibitor, full curve] and inconclusive: 1.32 µM [inhibitor, full curve]"
same,Potency,WaGa,"inconclusive: 944 nM [inhibitor, full curve] and inconclusive: 2.35 µM [inhibitor, full curve]"
same,Potency,C33A,"inconclusive: 11.2 µM [cytotoxic, partial curve]"
same,Potency,CAOV3,"inconclusive: 2.24 µM [cytotoxic, full curve, poor fit]"
same,Potency,CASKI,"inconclusive: 3.98 µM [cytotoxic, full curve]"
same,Potency,Es-2,active: 2.82 µM
same,Potency,HeLa,active: 2.24 µM
same,Potency,Hek293T,"inconclusive: 1.78 µM [cytotoxic, full curve, poor fit]"
same,Potency,JEG-3,"inconclusive: 3.16 µM [cytotoxic, full curve]"
same,Potency,SKOV3,"inconclusive: 2.24 µM [cytotoxic, partial curve, poor fit]"
COc1cc(Nc2ncc(F)c(Nc3ccc4c(n3)NC(=O)C(C)(C)O4)n2)cc(OC)c1OC,Potency,HEK293,"inconclusive: 29.1 µM [inhibitor, single point]"
same,Potency,HaCat,"inconclusive: 0.461 µM [inhibitor, partial curve, poor fit]"
same,Potency,KB-3-1,"inconclusive: 23.1 µM [inhibitor, single point]"
same,Potency,NIH3T3,"inconclusive: 23.5 µM [inhibitor, partial curve]"
same,Potency,MKL-1,inactive
same,Potency,CAOV3,"inconclusive: 39.8 µM [cytotoxic, single point]"
same,Potency,CASKI,active: 11.2 µM
same,Potency,OV90,"inconclusive: 7.08 µM [cytotoxic, full curve]"
same,Potency,PA-1,"inconclusive: 31.6 µM [cytotoxic, partial curve, poor fit]"
same,Potency,SKOV3,active: 15.8 µM
COc1ccc(-c2coc3cc(O)cc(O)c3c2=O)cc1,Potency,HEK293,"inconclusive: 37.2 µM [inhibitor, single point]"
O=C1CCc2ccc(OCCCCN3CCN(c4cccc(Cl)c4Cl)CC3)cc2N1,Potency,HEK293,"active: 16.8 µM and inconclusive: 37.2 µM [inhibitor, single point]"
same,Potency,HaCat,"inconclusive: 33.5 µM [inhibitor, single point]"
same,Potency,KB-3-1,"inconclusive: 23.1 µM [inhibitor, single point]"
same,Potency,NIH3T3,"inconclusive: 29.9 µM [inhibitor, single point]"
same,Potency,MCC-13,"inconclusive: 23.7 µM [inhibitor, single point]"
same,Potency,MKL-1,"inconclusive: 26.6 µM [inhibitor, single point]"
same,Potency,MKL-2,"inconclusive: 20.9 µM [inhibitor, single point]"
same,Potency,UISO,"inconclusive: 21.1 µM [inhibitor, single point]"
same,Potency,WaGa,"inconclusive: 26.6 µM [inhibitor, single point]"
same,Potency,Es-2,"inconclusive: 39.8 µM [cytotoxic, single point]"
same,Potency,Hek293T,"inconclusive: 39.8 µM [cytotoxic, single point]"
same,Potency,PA-1,"inconclusive: 31.6 µM [cytotoxic, single point]"
Cc1cccc(C#Cc2ccccc2)n1,Potency,HEK293,"inconclusive: 37.2 µM [inhibitor, single point]"
COc1ccc(-c2coc3cc(O)ccc3c2=O)cc1,max response,HEK293,inactive: -7.99%
CCCNS(=O)(=O)Nc1ncnc(OCCOc2ncc(Br)cn2)c1-c1ccc(Br)cc1,Potency,HEK293,"inconclusive: 37.2 µM [inhibitor, single point]"
OC(CCN1CCCCC1)(c1ccccc1)c1ccccc1,Potency,HEK293,"inconclusive: 33.5 µM [inhibitor, single point]"
CC(=O)N(C)C1(c2ccccc2)CCN(CCC[C@]2(c3ccc(Cl)c(Cl)c3)CCCN(C(=O)c3ccccc3)C2)CC1,Potency,HEK293,active: 662 nM and active: 18.4 µM
same,Potency,HaCat,active: 2.35 µM and active: 20.6 µM
same,Potency,KB-3-1,"active: 372 nM and inconclusive: 20.6 µM [inhibitor, single point]"
same,Potency,NIH3T3,"inconclusive: 26.4 µM [inhibitor, single point] and inconclusive: 25.9 µM [inhibitor, single point]"
same,Potency,UISO,"inconclusive: 23.5 µM [inhibitor, single point]"
same,Potency,C33A,"inconclusive: 35.5 µM [cytotoxic, single point]"
same,Potency,CAOV3,"inconclusive: 22.4 µM [cytotoxic, partial curve, poor fit]"
same,Potency,CASKI,active: 22.4 µM
same,Potency,Es-2,"inconclusive: 39.8 µM [cytotoxic, single point]"
same,Potency,HeLa,"inconclusive: 39.8 µM [cytotoxic, single point]"
same,Potency,Hek293T,"inconclusive: 39.8 µM [cytotoxic, single point]"
same,Potency,JEG-3,"inconclusive: 39.8 µM [cytotoxic, single point]"
same,Potency,OV90,"inconclusive: 39.8 µM [cytotoxic, single point]"
same,Potency,PA-1,"inconclusive: 39.8 µM [cytotoxic, single point]"
same,Potency,SKOV3,active: 22.4 µM
O=[N+]([O-])c1ccc(Nc2ccccc2-c2ccccc2)c2nonc12,Potency,HEK293,"inconclusive: 16.6 µM [inhibitor, partial curve]"
same,outcome,HaCat,inactive
C[C@@H]1CCN(C(=O)CC#N)C[C@H]1N(C)c1ncnc2[nH]ccc12,Potency,HEK293,"inconclusive: 13.2 µM [inhibitor, partial curve, poor fit]"

# — PubChem BioAssay (NCATS)
